Data as given in the supplement of paper PMC10126150.
Sequences with one replicate were seen in a single cluster, so their values are uncertain.

Test system: ATP
Assay: switch fluorescence ratio, 500 uM ATP over buffer (Cy3 cluster intensity, sum of 5 cycles each) (fold (ratio)); higher = stronger signal-on switching upon ATP binding; sequences stand for … in TCGTCGGCAGCGTCAGATGTGTATAAGAGACAGTTTTTTTTTTTTTTTTTTTTTTTTT…TC
Details: aptamer strand: ATP DNA aptamer (quencher-CACCTGGGGGAGTATTGCGGAGGAAGG + anchor), 100 nM annealed; ATP concentration: 500 uM; one replicate
In short: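 Cy3-labelled switching-strand clusters on a modified Illumina MiSeq flow-cell were annealed to 100 nM quencher-labelled ATP aptamer, imaged in selection buffer, then imaged after 15 min with 500 uM ATP at 22 °C. Five buffer/ATP cycles ran, with NaOH stripping and re-annealing between them. The fluorescence ratio is summed target-cycle over summed buffer-cycle Cy3 intensity per cluster, averaged per switch-domain sequence. Clusters outside 100-1000 RFU were excluded.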
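Note: ATP exposure 15 min at 22 °C before imaging.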

Sequence	switch fluorescence ratio
CAGTCACCGT	0.999
CCTGAGGCCG	1.16
AGTAAGGCGG	0.951
TTAGCAGTGG	1.14
GGGCTTGAG	1.01
TATCTGTATG	0.959
CTTGTTGC	0.951
GCGCATCGAA	0.977
CGGCAGCAC	4.7
CGGCAGTCGG	1.07
GGTTTAAGCG	1.01
TTGGAGTCGG	0.983
GAGGCGTATA	1.02
TCAGTATTGC	1.05
CGAGAGAGAT	1
TGAGGCCGAG	0.985
AAGTCGTCGT	1.06
GACACCAGTA	1.02
TGCGTGTGCA	0.974
GAGCCGGATT	0.973
TTTCTGGCCC	1.04
ACGTTATTAG	1.08
GCTCACGATG	1.03
GGATAGGGCT	0.98
GGATAATAGA	1.07
TAAGACGTGT	0.936

Sequence	switch fluorescence ratio
AAAATCGCAC	1.3
TCGCCTCCCT	1.59
CAGAACGTAC	1.74
GGGTAAATTC	0.976
TGACGCGTTG	0.983
GGGGTCAAAA	0.999
GCGATCGATA	1.08
CGAATTGGTT	0.967
CATTGACTCT	0.971
CTAACGATGG	0.999
TCAGATTACT	0.978
TATGTTTGTC	1.02
GCCTCTCGAC	1.18
ACGGGTTCAC	1.01
GCTCTAAAAA	1.04
TTTATCCCGC	1.17
TAGTTAGGTG	1.1
CAGTGTTTGT	0.986
TACGGGCTCT	0.941
TTTCGCTACG	2.07
ATTGATGGAC	1.04
TAAACTGGGG	1.02
CTCCTAATCC	2.21
TTGTTCGTCA	1.02
AACTGGAGTC	0.991
TTGCGCAAAT	1.59

Sequence	switch fluorescence ratio
AGACTTTACC	1.26
AAAGGCTCCT	1.03
CGAATGTGCG	1.02
TGCAACTGG	1.09
ATTCCCAGCT	1.04
CAACTAAAAT	1.06
ACAAACATGC	1.17
CTTGGACCAA	0.979
TGCAGCTGGG	0.98
AGGTGAGGAG	1.01
TTTATTGGTA	1.03
TCTAGAAGTG	0.938
GCAGGTTTTT	1.02
GCATTTGCGA	1.02
TAGAGAGAAG	1.02
GAACCTCTCT	1.08
CTCGTGTTCA	1
GGATATGAAC	1
TACCAAATTA	1.02
CTGGTATAAC	1.03
GTGACACTGG	1.02
AAGCCTGGGA	1.17
AAGAGTGGGT	0.985
AGTTCAGCGG	0.978
TACGTCAAT	1.44
ATACACTGT	1.03

Sequence	switch fluorescence ratio
CAATGGTCT	1.03
CGGCAGCTAT	2.1
CGATGTCATA	1
GTTTTCCTTA	1.02
AATACCGTCA	1.05
ACATTAATAG	1.02
ATAGGTCCT	1.02
CGGATGCGAC	1.09
CCATATTAAC	1.02
CATCAGTCGG	1.04
GGACTTGTTG	1.04
TACTCTTGAT	0.979
GCGAGGGTGC	1.06
ATATGATTCG	0.988
GAGGCTGAAG	0.992
GTCGCGCCCT	1.04
GCACAATTGA	1.01
TTACCAAAGA	1.01
GACGCCAGAG	1.14
GAGTTAATAA	1.03
CCTGGGCCAA	2.05
GCTGCTGGAT	0.998
GTGTGGCCAG	1.01
ATCGGTCCGC	1.12
CGCGTGTTGG	0.968
ATCTTAGAGC	0.967

Sequence	switch fluorescence ratio
TAACATATGA	1.02
CAGTTTCATG	0.996
GGACGCGTTT	1.01
TCTACGAGAC	1.57
TTTGCGGATT	0.988
CAACTAGTCC	0.983
TGAAGCTTAG	1.07
CTCAAGTGTA	1
GGGGGGTGCC	0.988
CCGACATTGG	1.06
CAAAAAGGTC	1.02
TTCTATCCGG	0.959
AGGCTACTAA	1
TGCGCT	0.992
AGCTGCGGCA	1
GATGAGGTTT	0.999
AAAGCCGTTG	1
CGAGCTAGGT	1.04
CCGTTGTATG	1.05
TAAAAGCCGT	0.998
TTAGACGTGT	0.983
AGTATCTCGC	0.99
TGATCGCTAA	1.15
CCCGGACAAA	1.01
AAAAATGTCT	0.961
CGTGCTATAA	1.43

Sequence	switch fluorescence ratio
TAACTGATTT	1.03
TCTCTAAGAC	1.35
CACCAGCGGC	1.05
AACCCAAATA	1.04
GGTGCTTCGA	1.01
ATGGCCTCTT	1.39
ACTTGCTTGC	1.06
CGCGTAGA	1.04
TATAGTCCTA	0.989
ATGCCTATGT	0.943
TTACCGGGTT	1.05
AGCCGAAGAG	1.01
CGCAGCTGGA	1.1
CCGTCTAGAG	1.3
ATACATACGA	1.38
TACAGTTACT	1.19
CTAGTGCGTT	1.03
GTGCACATGG	0.967
CCCGGGGAGT	1.02
ATACAAGCC	1.08
AAGAACTTCT	1.01
CCGCGTGGTT	1.02
TCGTTCGATA	1.02
